Article PMC4335499
These are yes or no findings as the source states them, for the method shown. Some entries that bind do so weakly or less than the wild type.

Experiments:
Assay in all cases: two-hybrid; Pab1/PABP1 constructs fused to the Gal4 DNA-binding domain (pOBD2), eIF4G fragments fused to the Gal4 activation domain (pOAD); yeast strain PJ694a; HIS3 reporter; cells spotted in a dilution series on synthetic complete plates lacking leucine and tryptophan, with or without histidine, 30°C, three days
[1] = target: Pab1 RRM2 (amino acids 123-204) S155V (S. cerevisiae) (UniProt P04147)
[2] = target: Pab1 RRM2 (amino acids 123-204) Y197N (S. cerevisiae) (UniProt P04147)
[3] = target: Pab1, full length (amino acids 1-578 as printed) (S. cerevisiae) (UniProt P04147)
[4] = target: Pab1 RRM2 (amino acids 123-204) A141D (S. cerevisiae) (UniProt P04147)
[5] = target: Pab1 RRM2 (amino acids 123-204) [K180E, E181R] (S. cerevisiae) (UniProt P04147)
[6] = target: Pab1 RRM2 (amino acids 123-204) L186M (S. cerevisiae) (UniProt P04147)
[7] = target: Pab1 RRM2 (amino acids 123-204) D138T (S. cerevisiae) (UniProt P04147)
[8] = target: Pab1 RRM2 (amino acids 123-204) A199E (S. cerevisiae) (UniProt P04147)

binding [1]: binds
binding [2]: binds
binding [3]: no binding
binding [4]: binds
binding [5]: binds weakly
binding [6]: no binding
binding [7]: binds
binding [8]: binds
B1: yeast eIF4G2 N-terminus (amino acids 1-341) (domain or fragment, UniProt P39936 1-341)
chain: MTDQRGPPPPHPQQANGYKKFPPHDNQYSGANNSQPNNHYNENLYSAREPHNNKQYQSKNGKYGTNKYNNRNNSQGNAQYYNNRFNNGYRLNNNDYNPAMLPGMQWPANYYAPQMYYIPQQMVPVASPPYTHQPLNTNPEPPSTPKTTKIEITTKTGERLNLKKFHEEKKASKGEEKNDGVEQKSKSGTPFEKEATPVLPANEAVKDTLTETSNEKSTSEAENTKRLFLEQVRLRKAAMERKKNGLISETEKKQETSNHDNTDTTKPNSVIESEPIKEAPKPTGEANEVVIDGKSGASVKTPQHVTGSVTKSVTFNEPENESSSQDVDELVKDDDTTEISD
